{"source": "paper PMC9750858", "about": "“Rapid biosensor development using plant hormone receptors as reprogrammable scaffolds” (Nature Biotechnology, 2022)", "data": [{"biological_target": "T1, wild-type PYR1 (Arabidopsis thaliana, UniProt O49686)", "T1 sequence (O49686 1-191)": "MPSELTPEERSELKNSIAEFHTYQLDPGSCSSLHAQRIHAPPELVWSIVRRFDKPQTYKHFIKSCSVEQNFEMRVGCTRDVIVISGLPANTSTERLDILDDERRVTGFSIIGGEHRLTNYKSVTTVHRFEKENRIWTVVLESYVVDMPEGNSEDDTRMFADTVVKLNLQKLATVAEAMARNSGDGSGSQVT", "T1 sequence (Q9CAJ0 23-511 partner)": "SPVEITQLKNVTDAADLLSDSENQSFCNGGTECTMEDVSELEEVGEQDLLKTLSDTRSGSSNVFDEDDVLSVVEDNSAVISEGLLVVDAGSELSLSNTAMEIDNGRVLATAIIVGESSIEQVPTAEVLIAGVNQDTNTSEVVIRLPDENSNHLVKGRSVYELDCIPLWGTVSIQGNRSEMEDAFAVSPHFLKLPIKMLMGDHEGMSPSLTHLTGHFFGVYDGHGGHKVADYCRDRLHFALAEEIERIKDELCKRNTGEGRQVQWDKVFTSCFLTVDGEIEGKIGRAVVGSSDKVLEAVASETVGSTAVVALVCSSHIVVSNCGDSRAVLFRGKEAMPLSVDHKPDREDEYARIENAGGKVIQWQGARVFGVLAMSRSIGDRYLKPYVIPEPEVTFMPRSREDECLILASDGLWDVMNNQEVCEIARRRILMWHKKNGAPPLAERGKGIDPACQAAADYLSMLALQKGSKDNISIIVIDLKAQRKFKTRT", "conditions": "cannabinoids 25 µM, organophosphates 100 µM", "values": [{"smiles": "CNC(=O)/C=C(\\C)OP(=O)(OC)OC", "note": "[monocrotophos]", "response of wild-type PYR1 to ligand": "none of which activated wild-type PYR1"}, {"smiles": "CCOP(=O)(OCC)OC(=CCl)c1ccc(Cl)cc1Cl", "note": "[Chlorfenvinphos, chlorfenvinphos]", "response of wild-type PYR1 to ligand": "none of which activated wild-type PYR1"}, {"smiles": "CCOP(=S)(OCC)Oc1cc(C)nc(C(C)C)n1", "note": "[Diazinon, diazinon]", "response of wild-type PYR1 to ligand": "none of which activated wild-type PYR1"}, {"smiles": "COP(=S)(OC)Oc1cc(Cl)c(Br)cc1Cl", "note": "[bromophos, bromophos-methyl]", "response of wild-type PYR1 to ligand": "none of which activated wild-type PYR1"}, {"smiles": "CCN(CC)c1nc(C)cc(OP(=S)(OC)OC)n1", "note": "[Pirimiphos-methyl, pirimiphos-methyl]", "response of wild-type PYR1 to ligand": "none of which activated wild-type PYR1"}, {"smiles": "CCOP(=S)(OCC)SCCSCC", "note": "[Disulfoton, disulfoton]", "response of wild-type PYR1 to ligand": "none of which activated wild-type PYR1"}, {"smiles": "CCOC(=O)CC(SP(=S)(OC)OC)C(=O)OCC", "note": "(stereo not shown) [malathion]", "response of wild-type PYR1 to ligand": "none of which activated wild-type PYR1"}, {"smiles": "CNC(=O)CSP(=S)(OC)OC", "note": "[Dimethoate, dimethoate]", "response of wild-type PYR1 to ligand": "none of which activated wild-type PYR1"}, {"smiles": "COP(=S)(OC)Oc1ccc([N+](=O)[O-])cc1", "note": "[Parathion-methyl, parathion-methyl]", "response of wild-type PYR1 to ligand": "none of which activated wild-type PYR1"}, {"smiles": "CCOP(=S)(OCC)SCn1nnc2ccccc2c1=O", "note": "[Azinphos-ethyl, azinphos-ethyl]", "response of wild-type PYR1 to ligand": "none of which activated wild-type PYR1"}]}]}
